Consider 13 molecules from the supplement of paper PMC4604168 (melanoma cell lines).

Some of the results follow. Most values come without repeats; read them as rough.
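Note: cell number obtained by counting DAPI-stained nuclei in high-throughput microscope images with image analysis software, screen run in 1,536-well plates.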

The assay concerns G361. Description: cell count relative to DMSO control; melanoma cells; higher = more viable cells. As to conditions: library dose: low library concentration; 72 h.
Take `N#CC[C@H](C1CCCC1)n1cc(-c2ncnc3[nH]ccc23)cn1` [ruxolitinib] + CC(C)CCN1c2nc(Nc3cc(F)c(O)c(F)c3)ncc2N(C)C(=O)C1C [BID1870] (first compound 1 µM, partner dose 0.2 µM): the cell count was 99.7%. As for `N#CC[C@H](C1CCCC1)n1cc(-c2ncnc3[nH]ccc23)cn1` [ruxolitinib] + c1cc(-c2cnn3cc(-c4ccc(OCCN5CCCCC5)cc4)cnc23)ccn1 [Dorsomorphin] (first compound 1 µM, partner dose 0.4 µM), the cell count came to 93.2%. Next, `Cc1cc(Nc2cc(N3CCN(C)CC3)nc(Sc3ccc(NC(=O)C4CC4)cc3)n2)n[nH]1` [Tozasertib] + Oc1cc(-c2nc(-c3ccccc3)[nH]c2-c2ccncc2)ccc1Cl [L779450] (first compound 0.006 µM, partner dose 0.2 µM): 96.8%; `N#CC[C@H](C1CCCC1)n1cc(-c2ncnc3[nH]ccc23)cn1` [ruxolitinib] + CC1(C)NC(=O)N(c2ccc([N+](=O)[O-])c(C(F)(F)F)c2)C1=O [nilutamide] (first compound 1 µM, partner dose 1 µM): 100%; `Cc1cc(Nc2cc(N3CCN(C)CC3)nc(Sc3ccc(NC(=O)C4CC4)cc3)n2)n[nH]1` [Tozasertib] + CC(C)CCN1c2nc(Nc3cc(F)c(O)c(F)c3)ncc2N(C)C(=O)C1C [BID1870] (first compound 0.006 µM, partner dose 0.2 µM): 93.2%.

`N#CC[C@H](C1CCCC1)n1cc(-c2ncnc3[nH]ccc23)cn1` [ruxolitinib] + COc1ccc(-c2ccc3c(N4CCOCC4)nc(N4C[C@@H](C)O[C@@H](C)C4)nc3n2)cc1CO [KU0063794] (first compound 1 µM, partner dose 0.02 µM): the cell count turned out to be 107%.

With `Cc1cc(Nc2cc(N3CCN(C)CC3)nc(Sc3ccc(NC(=O)C4CC4)cc3)n2)n[nH]1` [Tozasertib] + Cc1cc([N+](=O)[O-])ccc1NS(=O)(=O)c1cc(Cl)ccc1Cl [FH535] (first compound 0.006 µM, partner dose 1 µM), the cell count turned out to be 106%. In the case of `CC[C@]1(O)C[C@H]2CN(CCc3c([nH]c4ccccc34)[C@@](C(=O)OC)(c3cc4c(cc3OC)N(C=O)[C@H]3[C@@](O)(C(=O)OC)[C@H](OC(C)=O)[C@]5(CC)C=CCN6CC[C@]43[C@@H]65)C2)C1` [vincristine] + c1cc(-c2cnn3cc(-c4ccc(OCCN5CCCCC5)cc4)cnc23)ccn1 [Dorsomorphin] (first compound 0.0001 µM, partner dose 0.4 µM) it was 90.2%. In the case of `N#CC[C@H](C1CCCC1)n1cc(-c2ncnc3[nH]ccc23)cn1` [ruxolitinib] + Oc1nc(-c2ccc(C(F)(F)F)cc2)nc2c1CSCC2 [XAV939] (first compound 1 µM, partner dose 2 µM) it was 87.4%; in that of `Cc1cc(Nc2cc(N3CCN(C)CC3)nc(Sc3ccc(NC(=O)C4CC4)cc3)n2)n[nH]1` [Tozasertib] + Cn1cncc1[C@@](N)(c1ccc(Cl)cc1)c1ccc2c(c1)c(-c1cccc(Cl)c1)cc(=O)n2C [tipifarnib] (first compound 0.006 µM, partner dose 0.01 µM), 101%. The molecule `CC[C@]1(O)C[C@H]2CN(CCc3c([nH]c4ccccc34)[C@@](C(=O)OC)(c3cc4c(cc3OC)N(C=O)[C@H]3[C@@](O)(C(=O)OC)[C@H](OC(C)=O)[C@]5(CC)C=CCN6CC[C@]43[C@@H]65)C2)C1` [vincristine] + NC(=O)Nc1cc(-c2cccc(F)c2)sc1C(=O)N[C@H]1CCCNC1 [AZD7762] (first compound 0.0001 µM, partner dose 0.02 µM) registered a cell count of 101%. `Cc1cc(Nc2cc(N3CCN(C)CC3)nc(Sc3ccc(NC(=O)C4CC4)cc3)n2)n[nH]1` [Tozasertib] + O=C1NC(=O)/C(=C/c2ccc(-c3ccc(F)cc3O)o2)S1 [AS252424] (first compound 0.006 µM, partner dose 1 µM): the cell count is 98.3%.

Molecule `CC[C@]1(O)C[C@H]2CN(CCc3c([nH]c4ccccc34)[C@@](C(=O)OC)(c3cc4c(cc3OC)N(C=O)[C@H]3[C@@](O)(C(=O)OC)[C@H](OC(C)=O)[C@]5(CC)C=CCN6CC[C@]43[C@@H]65)C2)C1` [vincristine] + Cc1cc(N2CCOCC2)cc2[nH]c(-c3c(NC[C@@H](O)c4cccc(Cl)c4)cc[nH]c3=O)nc12 [BMS536924] (first compound 0.0001 µM, partner dose 0.2 µM) displayed a cell count of 98%.
